Results from ChEMBL document CHEMBL1201862, “PubChem BioAssay data set” (2004).
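Tested at 5 concentrations; 48 h exposure; 96-well plates; endpoints linearly interpolated, else capped at highest concentration. The concentration for 50% growth inhibition is given as GI50.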 Active and inactive are the calls of the source. Rule as the data show it: active = GI50 up to about 1.1 µM and inactive = higher.

What follows are compounds tested on NCI-H322M (assay: DTP human tumour cell line panel, 48 h).
For `C=C1CC(CC(=O)C(C)CC2CC(=C)C(=O)O2)OC1=O` (configuration not stated), the GI50 was inactive: > 100 µM. For `CCCCCCCCCCCc1cc(=O)c2c(O)cccc2o1`, the GI50 was inactive: > 100 µM. With `CC(=O)Nc1cc2c(s1)CCC1CC(=O)NN=C21` (configuration not stated) the GI50 was inactive: > 100 µM. With `O=C(/C=C/c1cccs1)c1cccc(C(=O)/C=C/c2cccs2)n1` the GI50 was inactive: > 100 µM. For `Cc1nc2ccc(Cl)cc2c2c1CCN2c1ccc(F)cc1`, the GI50 was inactive: 45.9 µM. With `COC(=O)C1=CSC2(S1)C(C(=O)OC)=CSc1c2ss/c1=N\c1ccccc1` (configuration not stated) the GI50 was inactive: 3.19 µM. In the case of `O=C1c2ccccc2-c2oc(=O)c3ccccc3c21`, the GI50 is reported as inactive: > 100 µM. For `CCC(CN(C)C)C(=O)c1ccco1` (configuration not stated), the GI50 was inactive: > 100 µM. In the case of `COc1ccc(/N=N/c2ccc3oc(=O)c(C(=O)Nc4ccccc4C)cc3c2)cc1`, the GI50 is reported as inactive: > 10 µM. In the case of `Cc1cccc2c(NCCCN(C)C)c3c([N+](=O)[O-])ccc(C)c3nc12`, the GI50 is reported as active: 0.256 µM. With `Cc1cc2c(cc1C)[n+]([O-])c(C#N)c(Cl)[n+]2[O-]` the GI50 was inactive: 15.6 µM. In the case of `Cn1cnc([N+](=O)[O-])c1Sc1nc(N)nc2c1ncn2Cc1ccccc1`, the GI50 is reported as inactive: 25 µM. With `C[N+](C)(C)c1ncnc2c1ncn2C1CCCCO1` (configuration not stated) the GI50 was inactive: > 100 µM. `CCC(=C(C#N)C#N)c1cc(OC)c(OC)c(OC)c1` was tested, and the GI50 was inactive: > 100 µM. In the case of `CCC(C)C(=O)c1c(O)c(C/C=C(\C)CCC=C(C)C)c(O)c2c(C(O)CC)cc(=O)oc12` (configuration not stated), the GI50 is reported as inactive: 3.18 µM. In the case of `COc1cccc(/C=C(\NC(C)=O)c2nc3cc(Cl)ccc3[nH]2)c1`, the GI50 is reported as inactive: > 100 µM. With `CC12CC(c3ccccc3O1)C(C(=O)Nc1ccc(F)cc1)C(=O)N2` (configuration not stated) the GI50 was inactive: > 100 µM. `O=c1[nH]c2c(O)cccc2c2cc3c(c(O)c12)OCO3` [NARCIPRIMINE] was tested, and the GI50 was inactive: 18.8 µM. `Fc1ccc(Oc2nc3ccc(C(F)(F)F)cc3nc2-c2ccccc2)cc1` was tested, and the GI50 was inactive: > 100 µM. With `CN(CCO)c1nc(=O)c2c([nH]1)CCC2` the GI50 was inactive: > 100 µM. For `Sc1ncnc2c1ncn2Cc1ccco1`, the GI50 was inactive: > 100 µM. For `COc1cc2nc(-c3ccccc3)cc(O)c2cc1OC`, the GI50 was inactive: 38.7 µM. `Cn1c(C(C#N)c2nc(Cl)ncc2Br)nc2ccccc21` (configuration not stated) was tested, and the GI50 was inactive: > 100 µM. In the case of `CC(C)(C)c1ccc(OCCOc2ccc(C(C)(C)C)cc2NC=O)c(NC=O)c1`, the GI50 is reported as inactive: 19.5 µM. With `C=C1C(=O)O[C@H]2[C@H]([C@H](C)CCCC(C)=O)O[C@H]([C@@]3(C)CCC(=O)O3)C[C@@H]12` the GI50 was inactive: 57.7 µM. In the case of `[N-]=[N+]=NC1=C(c2ccccc2)C(=O)c2cccc3cccc1c23`, the GI50 is reported as inactive: 18.9 µM. With `N#Cc1c2ccc([N+](=O)[O-])cc2c(=O)n2c1sc1ccc(C(F)(F)F)cc12` the GI50 was inactive: > 100 µM. With `COC(=O)C(=O)C(C(=O)C(=O)Nc1nnc(S)[nH]1)c1nc2ccc([N+](=O)[O-])cc2nc1O` (configuration not stated) the GI50 was inactive: > 100 µM. With `C[N+]1(C(CO)Cc2c[nH]c3ccccc23)Cc2ccccc2C1` (configuration not stated) the GI50 was inactive: > 100 µM. With `CN(C)CCS/C(=N\c1ccccc1)N1CCCCC1` the GI50 was inactive: 22.6 µM. With `O=S(=O)(N/N=C/c1ccc(Cl)c(Cl)c1)c1ccccc1` the GI50 was inactive: 39.3 µM. In the case of `COc1cc(C)c(CC/C(C)=C/Cc2cc(O)ccc2O)c(C)c1C` [PANICEIN A HYDROQUINONE], the GI50 is reported as inactive: > 25 µM. For `CCOC(=O)c1cn2c(ccc3sc4ccccc4c(=O)c32)n1`, the GI50 was inactive: 39.4 µM. `O=C1CCN/C(=N\C(=O)C(F)(F)F)N1CCc1c[nH]c2ccccc12` was tested, and the GI50 was inactive: > 100 µM. `COC(=O)c1ccccc1NC(=O)C(=O)CC(=O)CC(c1ccccc1)c1c(O)c2ccccc2oc1=O` (configuration not stated) was tested, and the GI50 was inactive: > 100 µM. For `COc1ccc(N2C(=O)CSC2c2cc(OC)c(OC)c(OC)c2)cc1` (configuration not stated), the GI50 was inactive: 25.1 µM. With `CC(=O)OCC1OC(OC2C(COC(C)=O)OC(Sc3ccccc3C)C(OC(C)=O)C2OC(C)=O)C(OC(C)=O)C(OC(C)=O)C1OC(C)=O` (configuration not stated) the GI50 was inactive: > 100 µM. In the case of `COCN1C(=O)[C@@H]2CCCN2C(=O)c2cc(Cl)ccc21`, the GI50 is reported as inactive: > 100 µM. For `N#Cc1ccccc1NC(=O)C(=O)C(C(=O)c1ccccc1F)C1OC(=O)c2ccccc21` (configuration not stated), the GI50 was inactive: 36.9 µM. For `Brc1ccc2[nH]cc(-c3nc(-c4c[nH]c5ccccc45)cs3)c2c1`, the GI50 was inactive: 3.02 µM. In the case of `COC1C=C(Nc2cccc(Cl)c2)C(=O)C1` (configuration not stated), the GI50 is reported as inactive: 39 µM. With `O=C(NCCNCCNCCNC(=O)c1cc(-c2ccccc2)nc2ccccc12)c1cc(-c2ccccc2)nc2ccccc12` the GI50 was inactive: 4.46 µM. With `COc1c(O)c(OC)c2oc(-c3ccc(O)cc3)c(OC)c(=O)c2c1O` the GI50 was inactive: 68.7 µM. With `O=S(=O)(CC(O)C(Cl)(Cl)Cl)NNc1ccccc1` (configuration not stated) the GI50 was inactive: > 100 µM. For `COC(=O)/C=C/c1ccc(OP(=O)(O)O)c(OC)c1`, the GI50 was inactive: > 100 µM. In the case of `ClC1=C(Cl)C(Cl)(Cl)c2c3c(c4c(c21)C(Cl)(Cl)C(Cl)=C4Cl)C(Cl)(Cl)C(Cl)=C3Cl`, the GI50 is reported as inactive: > 100 µM. For `S=C(Nc1ccc(Cl)cc1)SC1CCCCC1`, the GI50 was inactive: 28.7 µM.
